Hit rate of the full screen: of about 120,000 compounds, about 5,300 (4.4%) were called active. The shares of active, inactive and inconclusive entries below differ from those in the screen. The call rests on the fitted dose curve; in most records, active means well fitted inhibition curve with a large enough effect; inconclusive means small, poorly fitted or top-dose-only effect; inactive means no such curve, though single readings can be large or run the other way. Potencies of inconclusive entries are doubtful fits and often do not repeat.
test: qHTS Primary assay for Inhibitors of Plasmodium falciparum Dd2 growth in vitro; further: nearly all actives have a fitted effect of over 65% in size;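 on activity, negative = inhibition: plate controls were DMSO vehicle for no effect and reference drug for full effect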; conditions: P. falciparum Dd2 growth, SYBR Green, 72 h; activity, negative = inhibition: at 28.9 µM (top of the series) unless noted; series mostly up to 28.9 µM
Method in brief: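 Readout: SYBR Green fluorescence, 485 nm excitation, 535 nm emission, after ~16 h lysis at 37C. Before that, Dd2-infected red cells (2.5% hematocrit) grew 72 h with compound, 29 uM top final concentration.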
Potency means the concentration at half of the fitted maximal effect; tags describe the fitted curve by direction and shape.

Compound	Potency	activity, negative = inhibition
COc1ccc(Cn2c(=O)[nH]c3cc(C(=O)N4CCN(c5cccc(OC)c5)CC4)ccc3c2=O)cc1	inconclusive: 12.6 µM [inhibitor, single point]	–
CCOC(=O)c1ccc(NC(=O)c2c(NCc3sccc3C)sc3c2CCCCC3)cc1	active: 10 µM	–
CC(C)c1nc2c(NC(=O)c3cccc(Br)c3)cccn2n1	active: 3.16 µM	–
Cc1ccc(C)c(N2CCN(C(=O)CCS(=O)(=O)c3ccc4c(c3)CC(=O)N4C)CC2)c1	inconclusive: 17.8 µM [inhibitor, single point]	–
COc1ccccc1CNC(=O)CCC[C@@H]1[C@H]2CCCN3CCC[C@@H](CN1C(=O)c1ccccc1)[C@@H]23	inconclusive: 2.24 µM [inhibitor, full curve]	–
N#C/C(=C\c1ccc(-c2ccc(F)cc2F)o1)c1nc2ccccc2[nH]1	inconclusive: 14.1 µM [inhibitor, single point]	–
CCCC(=O)N1Cc2ccccc2CC2(CCN(Cc3ccccc3)CC2)C1	inconclusive: 5.01 µM [inhibitor, partial curve]	–
COc1ccc(C(=O)Nc2ccc(OCc3cc(=O)n4ccccc4n3)cc2)cc1	inconclusive: 0.224 µM [inhibitor, full curve, poor fit]	–
Cc1cc(C)cc(NC(=O)CN(C)S(=O)(=O)c2ccc3[nH]c4c(c3c2)CCCC4)c1	–	inactive: 18.6%
O=C1NCCCCCCN(C(=O)CCC2CCCC2)[C@H]2C[C@H](c3nc(Cc4ccccc4)no3)C[C@@H]12	inconclusive: 0.112 µM [inhibitor, full curve, poor fit]	–
Cc1ccc(NC(=O)CN2C(=O)COc3ccc(S(=O)(=O)N4CCCCCC4)cc32)cc1C	–	inactive: -8.66%
CCOc1ccc(C(=O)N2CCC3(CCNC(=O)CC3)CC2)cc1	–	inactive: -21.6%
CC(Oc1ccc(F)cc1)C(=O)Nc1cc(-c2ccc(F)c(F)c2)no1 (configuration not stated)	inconclusive: 8.91 µM [inhibitor, single point]	–
COc1ccc(-c2nnc(SCC(=O)Nc3ccc(C(C)=O)cc3)nc2-c2ccc(OC)cc2)cc1	inconclusive: 10 µM [inhibitor, single point]	–
Cc1ccc(C(=O)Nc2ccc3c(N4CCOCC4)ncnc3c2)cc1C	active: 11.2 µM	–
Cc1ccc(C)c(S(=O)(=O)N2CCCCC2c2noc(COCC3CC3)n2)c1 (configuration not stated)	inconclusive: 17.8 µM [inhibitor, single point]	–
COc1ccc(N2CCN(C(=O)COc3cccc(-c4nnc5n4CCCC5)c3)CC2)cc1	inconclusive: 2.24 µM [inhibitor, partial curve, poor fit]	–

Source: PubChem BioAssay AID1347417 (National Center for Advancing Translational Sciences (NCATS), 2020)
